Source: publication PMC4336329 (PLoS ONE, 2015)
The campaign covered roughly 310,000 compounds. About 2,200 (0.71%) showed an effect of 50% or more. Effects have a minus sign here. Some of the results follow.

Molecular target: human ether-à-go-go-related gene (hERG) potassium channel (human, UniProt Q12809)
Test: primary screen, population patch clamp on CHO cells stably expressing hERG

human ether-à-go-go-related gene (hERG) potassium channel, sequence (Q12809 whole entry, looked up): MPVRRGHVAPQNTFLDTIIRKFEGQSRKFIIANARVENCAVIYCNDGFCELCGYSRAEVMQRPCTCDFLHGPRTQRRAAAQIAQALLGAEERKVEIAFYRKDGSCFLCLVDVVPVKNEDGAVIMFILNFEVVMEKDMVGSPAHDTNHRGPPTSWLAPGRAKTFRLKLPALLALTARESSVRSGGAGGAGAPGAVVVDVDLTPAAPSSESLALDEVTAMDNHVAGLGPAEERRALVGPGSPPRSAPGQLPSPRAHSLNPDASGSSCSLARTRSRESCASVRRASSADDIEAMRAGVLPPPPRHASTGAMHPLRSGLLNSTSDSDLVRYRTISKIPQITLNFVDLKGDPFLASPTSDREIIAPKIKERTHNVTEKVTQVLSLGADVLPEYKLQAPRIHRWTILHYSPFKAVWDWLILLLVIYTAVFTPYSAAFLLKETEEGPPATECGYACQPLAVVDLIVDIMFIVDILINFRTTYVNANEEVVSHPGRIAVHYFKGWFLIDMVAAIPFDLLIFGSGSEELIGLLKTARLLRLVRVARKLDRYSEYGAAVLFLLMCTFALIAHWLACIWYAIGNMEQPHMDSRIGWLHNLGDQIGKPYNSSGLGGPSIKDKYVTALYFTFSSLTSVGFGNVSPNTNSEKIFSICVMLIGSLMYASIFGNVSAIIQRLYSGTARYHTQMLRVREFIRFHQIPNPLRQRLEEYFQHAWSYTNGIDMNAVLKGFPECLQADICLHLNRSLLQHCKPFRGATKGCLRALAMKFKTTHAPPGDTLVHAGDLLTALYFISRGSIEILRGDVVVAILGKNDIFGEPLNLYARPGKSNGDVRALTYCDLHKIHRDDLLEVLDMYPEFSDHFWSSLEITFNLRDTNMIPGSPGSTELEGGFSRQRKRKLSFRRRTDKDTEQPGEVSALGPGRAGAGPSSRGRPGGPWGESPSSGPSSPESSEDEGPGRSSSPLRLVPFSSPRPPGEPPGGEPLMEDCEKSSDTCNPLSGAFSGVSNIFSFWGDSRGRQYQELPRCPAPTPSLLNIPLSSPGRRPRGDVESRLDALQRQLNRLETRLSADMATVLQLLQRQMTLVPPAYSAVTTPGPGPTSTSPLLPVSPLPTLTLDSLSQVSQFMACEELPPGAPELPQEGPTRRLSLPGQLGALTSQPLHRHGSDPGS

SMILES | hERG current change (%, negative = inhibition) at 1uM [%]
Cc1ccc(C(=O)N/C(=C\c2ccco2)C(=O)N2CCCCC2)cc1 | 10.4
C=CCN1CCN(c2ccncc2S(=O)(=O)N2CCCCC2)CC1 | 9.05
O=S1(=O)CCC(NC(=S)NC2CCS(=O)(=O)C2)C1 (stereo not shown) | 11.6
COc1ccc(S(=O)(=O)CCc2nc3ccccc3s2)cc1 | 3.21
O=C(c1ccc(N2CCCC2)c([N+](=O)[O-])c1)N1CCc2ccccc2C1 | 9.05
CC(C)(C)C(=O)Nc1ccc(S(=O)(=O)c2ccc(NC(=O)C(C)(C)C)cc2)cc1 | 16.3
COc1ccc(CCNC(=O)CN(c2cc(OC)ccc2OC)S(=O)(=O)c2ccccc2)cc1 | 14.6
CC(C)(C)c1ccc(C(=O)NCCOc2ccccc2F)cc1 | 8.82
Cc1cnc(NC(=O)c2ccc3c(c2)OCCO3)s1 | 6.7
O=S1(=O)CCC(NC(=S)N2CCCCCC2)C1 (stereo not shown) | 14.1
CCN1CCN(C(=O)/C=C/c2ccc(OC)c(OC)c2)CC1 | 14.8
CCCCN1C(=O)C(=O)N(CC(=O)Nc2sc(C)c(C)c2C(=O)OC)C1=O | 10.5
Cc1ccc(NC(=O)NCc2cccn2C)cc1C | 13
COc1ccc(C2C=C(c3ccccc3)Nc3nc(CCCO)nn32)cc1 (stereo not shown) | 5.06
Cc1cc(C)n2nc(C(=O)NCCc3ccccc3)nc2n1 | 9.62
CCC/S(CC1CC1(Cl)Cl)=N\S(=O)(=O)c1ccc(C)cc1 (stereo not shown) | 0.842
Cc1cc(C)nc(Nc2cccc(C(F)(F)F)c2)n1.Cl | 13.7
CCCCCC(=O)NCc1c(C(F)(F)F)nn(C)c1N1CCOCC1 | 8.92
O=C(Nc1ccn(-c2ccccc2)n1)c1ccc(S(=O)(=O)N2CCCCCC2)cc1 | -1.55
COC(=O)c1ccc(NC(=O)CCn2c(=O)oc3ccccc32)cc1 | 16.8
C/C(N)=C(/C#N)C(=O)COC(=O)c1oc2ccccc2c1COC(C)C | 11.4
COC(=O)c1ccc(-c2c(-c3ccccc3)ncc3cc(OC)c(OC)cc23)cc1 | 2.4
O=C(O)c1ccccc1-c1ccccc1C(=O)Nc1cccc2ccccc12 | 20

SMILES | hERG current change (%, negative = inhibition) at 1uM [%]
C=CCn1c(SCC(=O)NC2CC2)nnc1-c1ccccn1 | 11.1
C#CCOCCOCCOCCNc1nc(N2CCN(C(=O)[C@H](CCCCN)n3cc([C@@H](N)CC(C)C)nn3)CC2)nc(N2CCN(C(=O)[C@H](Cc3ccc(O)cc3)n3cc([C@@H](N)CC(C)C)nn3)CC2)n1.Cl | 3.67
O=C(NC1CCCC1)C(c1ccncc1)N(C(=O)c1csnn1)c1ccc(Cl)cc1 (stereo not shown) | 11.8
COc1ccc(OCC(O)CNS(=O)(=O)c2ccc(NC(C)=O)cc2)cc1 (stereo not shown) | 8.05
CCCCOc1ccc(C(=O)N(CC)CC(=O)NCc2cccs2)cc1 | -8.88
Cl.NCCc1nnc(SCc2ccccc2F)o1 | 16.1
CNC(=S)N(Cc1ccc2c(c1)OCO2)C1CC(=O)N(c2ccc(F)cc2)C1=O (stereo not shown) | 7.47
CC(=O)Nc1ccc(S(=O)(=O)N=S(C)C)cc1 | 2.34
COC(=O)c1nn(-c2cccc(C)c2)c2nnc(Cc3ccccc3)c(=O)n12 | 3.61
FC(F)(F)c1ccccc1/C=N/Nc1ccccn1 | 1.55
COc1ccccc1NS(=O)(=O)c1cccc(C(=O)NCC(c2ccco2)N(C)C)c1 (stereo not shown) | -8.76
Nc1n[nH]c(S(=O)(=O)CCCc2ccccc2)n1 | 10.6
O=C(CCSCCc1ccccn1)Nc1ccc(Br)cn1 | -7.53
COc1ccccc1CN1CCSCC1 | 8.24
O=C(Cn1cc2c(n1)CCCCC2)NCc1ccccn1 | -2.41
O=C(Nc1ncc(Cc2ccc(SC(F)F)cc2)s1)c1ccc(OC(F)F)cc1 | 13.2
COC(=O)c1ccn(-c2nc(-c3ccco3)cc(C(F)(F)F)n2)n1 | -3.11
O=C(CCCCCNC(=S)Nc1ccccc1)C[N+](=O)[O-] | 0.796
COc1ccc(Nc2nc(N3CCCC3)nc(N3CCOCC3)n2)cc1 | 1.98
CCCCNS(=O)(=O)c1ccc2nc(SCC(=O)N3CC(C)OC(C)C3)[nH]c2c1 (stereo not shown) | 9.31
Cc1c(S(=O)(=O)Nc2ccc(Br)cc2)c(=O)n(C)c(=O)n1C | 12
Nc1nc(-c2cccs2)c(CC(=O)O)s1 | 18.2
COc1ccc(CC(=O)OC(C)CN2CCCCC2)cc1 (stereo not shown) | 11

SMILES | hERG current change (%, negative = inhibition) at 1uM [%]
CCCNC(=O)c1cc2cc([N+](=O)[O-])ccc2s1 | -1
COC(=O)c1c(NC(=O)CN2C(=O)c3ccccc3C2=O)sc(Cc2ccc3c(c2)OCO3)c1C | 11.7
COc1ccc(C(=O)Nn2cc3c(c2-c2ccccc2)c(=O)n(C)c(=O)n3C)cc1 | 16.6
Cc1noc(C)c1C(=O)N1CC(C)OC(C)C1 (stereo not shown) | -5.43
CCOc1ccc(CSC(CC(=O)O)C(=O)O)cc1 (stereo not shown) | 6.71
O=C1/C(=C/c2ccccn2)SC(=S)N1c1cccc(O)c1 | 11.2
COc1ccc(CC(C)NCCc2ccc(OC)c(OC)c2)cc1 (stereo not shown) | -45.3
COc1cc(NC(=O)NCc2ccncc2)cc(OC)c1OC | 4.67
C/C(=N/NC(=O)c1cc(-c2cccc([N+](=O)[O-])c2)n[nH]1)c1ccc(Cl)cc1 | 9.99
COC(=O)c1ccc(-c2ccc(Cl)cc2)nc1C | 14.1
Cc1ccccc1/C=C/C1=NCCN1.O=C(O)C(=O)O | 7.6
CCNC(=S)Nc1cc(-c2ccc(Cl)cc2)[nH]n1 | 14.3
CCOC(=O)c1cccc(S(=O)(=O)N(CCO)Cc2cc3cc(OC)c(OC)cc3[nH]c2=O)c1 | -2.88
CC(=O)Nc1ccc(NC(=O)C(C)OC(=O)C2(c3ccc(Cl)cc3)CCCC2)cc1 (stereo not shown) | 8.8
CCC(C)c1ccc(OCC(=O)O)cc1 (stereo not shown) | 6.66
O=C1CC(C(=O)Nc2ncccn2)C(c2ccccc2)O1 (stereo not shown) | 6.34
Nc1nnc(C(=O)c2ccccc2N)s1 | 2.64
O=c1c2ccccc2nc2n1CCCN2 | 13.5
O=C(CSC(=S)N1CCSCC1)c1ccc(Cl)cc1 | 8.62
COc1ccc(S(=O)(=O)N2CCC(=O)N2)cc1 | 15.7
CCOC(=O)N1CCC(NS(=O)(=O)c2cc(Br)cc3c2N(C(=O)CC)CC3)CC1 | 11.1
CCOC(=O)CSC1=C(C#N)C(C)C2=C(CCCC2=O)N1 (stereo not shown) | 0.85
CCC(=O)c1ccc(OCC(O)CN2CCCCC2)cc1.Cl (stereo not shown) | 3.96

SMILES | hERG current change (%, negative = inhibition) at 1uM [%]
Cc1ccc2c(c1)N(CCC(=O)NC1CCCCC1C)C(=O)CO2 (stereo not shown) | 20.8
Cc1occc1-c1nnc(SCC(=O)Nc2c(F)cccc2F)n1C | 5.07
COc1ccc(CN(C)CC(=O)Nc2ccc(Cl)cc2F)c(OC)c1.O=C(O)C(=O)O | 7.84
COc1ccc(C2C(C#N)=C(SCC(=O)Nc3ccc(C)cc3)NC3=C2C(=O)CC(C)(C)C3)cc1 (stereo not shown) | 11.1
CC(C)N(Cc1nccn1C)C(=O)c1cc(COc2ccc3ncccc3c2)on1 | 6.13
Cc1c(C(=O)N2CCOCC2)[nH]c2c1C(=O)CC(c1ccc(Cl)cc1)C2 (stereo not shown) | -7.88
CC(C)(C)NC[C@H](O)COc1nsnc1N1CCOCC1.O=C(O)/C=C\C(=O)O | 13.2
COc1cc2c(cc1OC)C(c1ccccc1)N(C(=O)CSCC(=O)O)CC2 (stereo not shown) | 16.8
COc1ccc(Br)cc1CN(C)CC(=O)Nc1ccccc1Cl | -1.67
CCC(C(=O)OCC(=O)Nc1ccc(C(N)=O)cc1)c1ccccc1 (stereo not shown) | -8.46
COC(=O)c1ccc(CSc2nnc(NC(C)C)s2)cc1 | 3.14
O=c1[nH]c(/C=C/c2ccc(Br)cc2)nc2ccccc12 | 8.11
Cc1ccccc1-c1nc(CS(=O)CC(=O)NCc2ccccn2)c(C)o1 (stereo not shown) | 16.3
Oc1ccccc1Oc1ncc(Br)c(N2CCOCC2)n1 | -9.87
Cc1c(Br)cc(C(=O)OC2CCN(C)CC2)c(C)c1C | 9.06
Cc1ccc(S(=O)(=O)CCC(=O)OCC(=O)c2ccc(C)c(C)c2)cc1 | 16.1
COc1ccc([N+](=O)[O-])cc1NC(C)C | 5.16
CC(=O)c1ccc(OCC(=O)Nc2c(C)nn(-c3ccccc3)c2C)cc1 | 13.9
CCOc1cc2nc(-c3ccc(OC)c(OC)c3)nc(N3CC(C)OC(C)C3)c2cc1OC (stereo not shown) | 15.3
CCOC(=O)C1(C)NC(c2ccccc2F)C2C(=O)N(CC)C(=O)C21 (stereo not shown) | 12.5
Cc1ccc(SCC(=O)c2c(C)nc3cc(C)ccn23)cc1 | 24.6
c1ccc(-n2cnc3cc(NCc4ccncc4)ccc32)cc1 | 5.4
